Structures are written as SMILES. The list shows a part of the results. Many values rest on one well or one pass, so single values are uncertain.
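Also: cell number obtained by counting DAPI-stained nuclei in high-throughput microscope images with image analysis software, screen run in 1,536-well plates.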

The test system of this test is COLO829. Briefly: cell count relative to DMSO control; melanoma cells; higher = more viable cells. The settings on record: library dose: low library concentration; 72 h.
In turn, `CCN(CC)CCNC(=O)c1c(C)[nH]c(/C=C2\C(=O)Nc3ccc(F)cc32)c1C` [sunitinib] + CC(=O)c1c(C)c2cnc(Nc3ccc(N4CCNCC4)cn3)nc2n(C2CCCC2)c1=O [palbociclib] (first compound 0.4 µM, partner dose 0.04 µM) registered a cell count of 109%.
Regarding `C[C@]1(O)C[C@@H](c2nc(-c3ccc4ccc(-c5ccccc5)nc4c3)c3c(N)nccn32)C1` + CNC(=O)c1cc(Oc2ccc(NC(=O)Nc3ccc(Cl)c(C(F)(F)F)c3)cc2)ccn1 [sorafenib] (first compound 0.4 µM, partner dose 0.4 µM), the cell count stood at 102%.
As for `Cn1cnc2c(F)c(Nc3ccc(Br)cc3Cl)c(C(=O)NOCCO)cc21` [selumetinib] + COc1ccc(Cl)c(Nc2nc3ccccc3nc2NS(=O)(=O)c2cccc(NC(=O)C(C)(C)N)c2)c1 [XL147] (first compound 0.015 µM, partner dose 0.8 µM), the figure is 126%.
The figure for `Cn1cnc2c(F)c(Nc3ccc(Br)cc3Cl)c(C(=O)NOCCO)cc21` [selumetinib] + CN(c1ncccc1CNc1nc(Nc2ccc3c(c2)CC(=O)N3)ncc1C(F)(F)F)S(C)(=O)=O [PF562271] (first compound 0.015 µM, partner dose 0.08 µM) is 112%; for `C[C@]1(O)C[C@@H](c2nc(-c3ccc4ccc(-c5ccccc5)nc4c3)c3c(N)nccn32)C1` + CCCCCCCCc1ccc(CCC(N)(CO)CO)cc1 [fingolimod] (first compound 0.4 µM, partner dose 2 µM) it is 91.6%.
The compound `Cn1cnc2c(F)c(Nc3ccc(Br)cc3Cl)c(C(=O)NOCCO)cc21` [selumetinib] + CCCCCCCCc1ccc(CCC(N)(CO)CO)cc1 [fingolimod] (first compound 0.015 µM, partner dose 2 µM) came in with a cell count of 108%.
Consider `CCN(CC)CCNC(=O)c1c(C)[nH]c(/C=C2\C(=O)Nc3ccc(F)cc32)c1C` [sunitinib] + CN1CCN(c2ccc3nc(-c4c(N)c5c(F)cccc5[nH]c4=O)[nH]c3c2)CC1 [Dovitinib] (first compound 0.4 µM, partner dose 0.1 µM), for which the cell count was 88.9%.
As for `Cn1cnc2c(F)c(Nc3ccc(Br)cc3Cl)c(C(=O)NOCCO)cc21` [selumetinib] + Cn1c(Nc2ccc(C(F)(F)F)cc2)nc2cc(Oc3ccnc(-c4ncc(C(F)(F)F)[nH]4)c3)ccc21 [CHIR265] (first compound 0.015 µM, partner dose 0.08 µM), the figure is 102%.
Turning to `COc1cc([C@@H]2c3cc4c(cc3[C@@H](O[C@@H]3O[C@@H]5CO[C@@H](C)O[C@H]5[C@H](O)[C@H]3O)[C@H]3COC(=O)[C@H]23)OCO4)cc(OC)c1O` [etoposide] + O=C(Nc1cc(C(F)(F)F)cc(C(F)(F)F)c1)c1cc(Cl)ccc1O [IMD0354] (first compound 0.02 µM, partner dose 0.016 µM), the cell count amounted to 128%.
`CCN(CC)CCNC(=O)c1c(C)[nH]c(/C=C2\C(=O)Nc3ccc(F)cc32)c1C` [sunitinib] + CC(=O)O[C@@]12CO[C@@H]1C[C@H](O)[C@@]1(C)C(=O)[C@H](O)C3=C(C)[C@@H](OC(=O)[C@H](O)[C@@H](NC(=O)OC(C)(C)C)c4ccccc4)C[C@@](O)([C@@H](OC(=O)c4ccccc4)[C@H]21)C3(C)C [Docetaxel] (first compound 0.4 µM, partner dose 0.0001 µM): the cell count is 61.8%.
As to `C[C@]1(O)C[C@@H](c2nc(-c3ccc4ccc(-c5ccccc5)nc4c3)c3c(N)nccn32)C1` + CN1CCN(c2ccc3nc(-c4c(N)c5c(F)cccc5[nH]c4=O)[nH]c3c2)CC1 [Dovitinib] (first compound 0.4 µM, partner dose 0.1 µM), the cell count was determined as 103%.
The compound `C[C@]1(O)C[C@@H](c2nc(-c3ccc4ccc(-c5ccccc5)nc4c3)c3c(N)nccn32)C1` + CC(C)C[C@H](NC(=O)[C@H](Cc1ccccc1)NC(=O)c1cnccn1)B(O)O [Bortezomib] (first compound 0.4 µM, partner dose 0.001 µM) had a cell count of 81.2%.
